Data as given in PubChem BioAssay AID1508623 (National Center for Advancing Translational Sciences (NCATS), 2021).
About 450 (0.94%) of roughly 48,000 compounds were called active. About 19% were inconclusive and are not listed. Calls come from the whole dose curve; as a rule, active = well fitted inhibition curve with a large enough effect; inconclusive = small, poorly fitted or top-dose-only effect; inactive = no such curve, though single readings can be large or run the other way. The list shows a part of the results.

Assay: Primary qHTS for Identification of Small Molecule Inhibitors of Huntingtin Promoter Activity; note: nearly all actives have a fitted effect of over 50% in size
Conditions: HEK293 HTT promoter firefly luciferase reporter (activity 0% = vehicle and -100% = no light), 24 h; series mostly up to 57.5 µM; activity change, negative = inhibition: at the top concentration
In short: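 Firefly luciferase readout (Dual-Glo, 10 min RT) after 24 h, 37 °C compound exposure (final up to 57.5 uM) of HEK293 reporter cells cultured 24 h beforehand; PTC124 at 50 uM final as control inhibitor; activity scaled vehicle 0%, zero RLU -100%.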

Activity change, negative = inhibition, inactive:
COc1ccc(CNC(=O)CC2Oc3ccc(C)cc3NC2=O)cc1 (stereo unspecified) -1.33%
COc1cccc(CC(=O)Nc2ccc3nc(Nc4cccc(C(F)(F)F)c4)cc(C)c3c2)c1 -29.6%
COC(=O)c1cc2oc3ccccc3c2n1CC(=O)Nc1ccc(F)c(Cl)c1 -22.7%
COc1ccc(CCNc2nc(SCc3cccc(Cl)c3)nc3ccccc23)cc1OC -9.27%
Cc1cccc(Cn2c(CN3CCCC(C)C3)nc3c2c(=O)n(C)c(=O)n3C)c1 (stereo unspecified) -2.71%
COCCCNC(=O)c1ccc(-n2c(-c3ccccc3)cc3c2CCCCC3)cc1 9.64%
Clc1ccc2nc(-c3cccs3)c(Nc3ccc4c(c3)OCCO4)n2c1 2.18%
CCOC(=O)c1cc(OC(=O)c2cc(OC)cc(OC)c2)n(-c2ccccc2)n1 -3.01%
CCc1nonc1NC(=O)c1oc2ccc(Cl)cc2c1C 25.3%
Cc1ccc(Cl)cc1NC(=O)Cn1c(SCC(=O)NCc2ccccc2)nc2ccccc21 -3.69%
CC1=C(C(=O)OC2CCCCCC2)C(c2ccc(Cl)cc2Cl)CC(=O)N1 (stereo unspecified) -10.4%
COc1ccc(Cl)cc1C(=O)NCC(c1ccc(N(C)C)cc1)N1CCCC1 (stereo unspecified) 1.7%
CN1CCN(c2c(F)cc3c(=O)c(C(=O)O)cn(CCF)c3c2F)CC1
O=C(Cn1c(-c2cccs2)cc2cc(Cl)ccc21)N1CCCCC1 -19.6%
C[N+](C)(C)CC[N+]1(C)Cc2c(Cl)c(Cl)c(Cl)c(Cl)c2C1 11.2%
Cc1ccc(C)c(NC(=O)Cn2c(=O)n(CCCS(=O)(=O)C3CCCCC3)c(=O)c3ccccc32)c1 -11.9%
Cc1ccc(-c2ccc(CCC(=O)O)n2-c2ccc(C)c(Cl)c2)cc1 35.8%
Fc1ccc(-c2nnn3c2nc(NCc2ccccc2)c2ccccc23)cc1 -8.01%
CCOc1cc(C(=O)Nc2ccc(-c3nnc4n3CCCCC4)cc2)cc(OCC)c1OCC 4.68%
Cn1c(=O)n(C)c2cc(N3CCOCC3)c(NS(=O)(=O)c3ccc(F)cc3)cc21 1.21%
Cc1ccc2nc(/C(C#N)=C/c3ccc(-c4ccc(C(=O)OC(C)C)cc4)o3)[nH]c2c1 -12.4%
Cc1ccc2c(c1)c1c(c(=O)n(-c3ccccc3)c(=O)n1CC(=O)c1ccc(Cl)cc1)n2C -14.9%
CCOc1ccc(NC(=O)CSc2nccn2C2CCCC2)cc1 -13.2%
COC(=O)c1cccc(CN2C(=O)SC(Nc3ccccc3C)C2=O)c1 (stereo unspecified) -14.2%
COc1ccc(-n2c(=O)c3c4c(sc3n(CC(=O)C(C)(C)C)c2=O)CCCC4)c(OC)c1 -3.37%
O=C(Cn1nnc(-c2cccc(C(F)(F)F)c2)n1)NCc1ccc(F)cc1 -11.7%
CCc1ccc(CNC(=O)c2cc3cc4ccc(OC)cc4nc3o2)cc1 -1.12%
Cc1c(C(=O)Oc2ccc(Br)cc2)sc2ncn(Cc3ccccc3F)c(=O)c12 -7.52% [at 11.5 µM]
Cc1ccc(NC(=O)C(=O)NCC(c2ccc3c(c2)OCO3)N2CCN(C)CC2)cc1C (stereo unspecified) -13.2%
CCN(CC)S(=O)(=O)c1ccc2c(c1)c(=O)c(C(=O)N1CCN(c3ccccc3OC)CC1)cn2C -2.94%
COc1cc(NC(=O)Nc2c[nH]c(=O)[nH]c2=O)cc(OC)c1OC 11.3%
CC(C)CCNC(=O)Cn1cc(S(=O)(=O)Cc2ccc(F)cc2)c2ccccc21 -28.3%
CCCCOc1ccc(S(=O)(=O)n2nc(C)c(S(=O)(=O)N3CCCCCC3)c2C)cc1 -5.36%
O=C(NCCCN1CCN(c2ccccc2F)CC1)c1sc2ncccc2c1-n1cccc1 -20.5%
CCCC(=O)OC1=C(C(C)=O)N(Cc2ccccc2)S(=O)(=O)c2ccccc21 -38.2%
O=C(CCS(=O)(=O)c1cc2c(cc1Cl)NC(=O)CO2)NCc1ccccc1 -5.38%
Cn1cc(S(=O)(=O)c2ccccc2)c(=O)c2cc(F)c(N3CCCC3)cc21 -2.82%
NNc1nncc2ccccc12
CC(=O)OCC(CCn1cnc2cnc(N)nc21)COC(C)=O
COc1ccc(CCNC(=O)c2cc3c(=O)n4ccccc4nc3n2C)cc1 6.95%
COc1ccc(NC(=O)Cn2cc(S(=O)(=O)c3ccccc3)c(=O)c3cc(C)ccc32)cc1Cl -5.03%
COc1cccc(N2CCN(C(=O)c3ccc4c(Cl)c5c(nc4c3)CCCC5)CC2)c1 0.557%
C[C@H](CN1CCCC1)C(=O)c1ccc(C(F)(F)F)cc1 -3.91%
CCC(=O)N1CCc2cc(Br)cc(S(=O)(=O)N3CCC(C(=O)Nc4cccc(C)c4)CC3)c21 -19.3%
CCC(Cn1nnc2ccccc2c1=O)NC(=O)Nc1cc(OC)cc(OC)c1 (stereo unspecified) -4.66%
Cc1cc2c(cc3c(SCc4cccc(Cl)c4)nnc(C)n32)o1 9.64%
O=c1c2cccnc2n(Cc2ccc(Cl)cc2)c(=O)n1Cc1ccc(F)cc1 7.86%
CNC(=O)c1cccc(-n2c(C)nc3cccnc32)c1C 2.64%
CC(=O)c1ccc(NC(=O)CSc2nc3c(=O)n(C)c(=O)n(C)c3n2C)cc1 5.59%
CCCSc1nnc(NC(=O)Cc2coc3cc(C)ccc23)s1 -12.5%
CC(=O)Nc1ccc(S(=O)(=O)N2CCN(c3ccc(C)c(C)c3)CC2)cc1 -28.6%
Cc1cc(N2CCN(C)CC2)nc2ccc(NC(=O)c3ccccc3F)cc12 51.4%
Cc1cccc(NC(=O)Nc2ccc(C)c(C)c2)n1 67.8%
Cc1cc(OCC(=O)Nc2ccc(C(=O)OC3CCCCC3)cc2)ccc1Cl 2.73%
CNC(=O)C1CCC(Cn2c(=O)c3sccc3n(CC(=O)Nc3cc(C)cc(C)c3)c2=O)CC1 (stereo unspecified) -11.6%
COc1cccc(NC(=O)Cn2nc(-c3ccncc3)ccc2=O)c1 -11% [at 11.5 µM]
O=C(c1c[nH]c2ccc(S(=O)(=O)Nc3ccccc3F)cc2c1=O)N1CCCCCC1 -1.47%
CCOc1ccc(NC(=O)C(=O)NCCc2sc(-c3ccc(C)cc3)nc2C)cc1 -7.38%
COc1ccc(OC)c(NC(=O)C2CCN(S(=O)(=O)c3c(C)noc3/C=C/c3ccc(C)cc3)CC2)c1 -5.84%
CC1CCCCN1CCCNC(=O)c1sc2ncccc2c1-n1cccc1 (stereo unspecified) -9.61%
CCC(C)n1c(=N)c(C(=O)NCc2ccco2)cc2c(=O)n3cc(C)ccc3nc21 (stereo unspecified) 14.6%
Cc1cccc(Cn2c(CN3CCC(C(=O)NCc4ccccc4Cl)CC3)cc3ccccc32)c1 11%
COc1ccc(Cn2c(CNS(=O)(=O)c3ccc(Cl)s3)nc3cccnc32)cc1 -16%
O=S(=O)(NCc1csc(-c2ccccc2)n1)c1ccccc1 -11%
Cc1ccc(C(=O)Nc2cc(-c3nc4cc(Cl)ccc4o3)ccc2C)c(C)c1 11.4%
CCCN1C(=O)c2[nH]nc(-c3ccc(OC)cc3)c2C1c1ccccn1 (stereo unspecified) 0.513%
COC(=O)c1sc(N2C(=O)c3oc4cc(C)c(C)cc4c(=O)c3C2c2ccccc2F)nc1C (stereo unspecified) -19.4%
C=CC(=O)Nc1cccc(Oc2nc(Nc3ccc(N4CCN(C)CC4)cc3OC)ncc2Cl)c1 -15.6%
CCOCCCNC(=O)C1CCN(c2nc3ccc(Cl)cc3[nH]2)CC1 14.4%
O=C(c1cnn(-c2ccc(F)cc2)c1-n1cccc1)N1CCN(c2cccc(Cl)c2)CC1 -27.1%
O=C(Cn1c(=O)n(Cc2ccco2)c(=O)c2ccccc21)Nc1cccc(F)c1 -14.3%
COc1ccc(NC(=O)Cn2c(=O)n(Cc3ccco3)c(=O)c3sc4ccccc4c32)cc1OC -14.3%
CC(=O)c1ccc(NC(=O)c2cnc(N3CCCC3)nc2C)cc1 -13.8%
CCOc1cc(C#N)c(NC(=O)c2ccc(OC)c(S(=O)(=O)N3CCCCC3)c2)cc1OCC -12.7%
Cc1ccc(-n2c(-c3ccc(Br)cc3)nc3c(cnn3-c3ccccc3)c2=O)cc1 -28.8%
CCc1ccccc1NC(=O)Cn1c(=O)n(-c2ccccc2)c(=O)c2oc3ccccc3c21 4.96%
Cc1c2cnn(-c3ccccc3)c(=O)c2c(C)n1CC(=O)Nc1ccccc1Br -12.1%
COc1ccccc1N1CCN(S(=O)(=O)c2ccc(-c3coc(C)n3)cc2)CC1 -5.75%
Cc1ccc(N2CCN(C(=O)c3cn(C)c4ccc(S(=O)(=O)N5CCC(C)CC5)cc4c3=O)CC2C)cc1 (stereo unspecified) 71.3% [at 11.5 µM]
COc1ccc2c(c1)CC(C(=O)Nc1ccc(Br)c(C)c1)CO2 (stereo unspecified) -29.2%
CCN(C(=O)CSc1nc(-c2ccc(C(C)C)cc2)no1)c1ccccc1 -28.4%
COc1ccc(C(=O)NCC(=O)OCc2cc(=O)n3nc(C4CCCCC4)sc3n2)cc1 -4.03%
Cc1ccccc1-c1nc(CS(=O)(=O)CC(=O)NCCCN2CCN(C)CC2)c(C)o1 -17%
Cc1c(N(C)CS(=O)(=O)O)c(=O)n(-c2ccccc2)n1C 7.18%
COc1ccc(NC(=O)CSc2nncn3c2cc2occc23)c(OC)c1 5.33%
COc1ccc(-n2nnc(-c3nc(-c4ccc5c(c4)OCO5)no3)c2C)cc1Cl -2.17%
CCOC(=O)c1ccc(NC(=O)CCc2c(C)nc3cc(-c4ccc(OC)cc4OC)nn3c2C)cc1 -15.6%
CC(C)Oc1ccc(C(=O)N2CCC(c3nc4ccccc4s3)CC2)cc1 -20.1%
COc1cc(C(=O)Nc2ccc(-c3nc4cc(C)c(C)cc4o3)cc2)cc(OC)c1OC -9.64% [at 11.5 µM]
CC(=O)Nc1ccc(S(=O)(=O)N2CCC(n3c(C)nc4cccnc43)CC2)cc1 -27.3%
CCC(C)NC(=O)Cn1c(=O)n(-c2cc(OC)cc(OC)c2)c(=O)c2ccccc21 (stereo unspecified) -10.2%
Cc1ccc2c(CNCCc3ccco3)c(C(=O)O)n(Cc3ccc(F)cc3)c2c1 -18.9%
CCOc1ccc(CN(CCc2ccc3c(c2)OCO3)Cc2cc(OC)cc(OC)c2)cc1 -28.5%
COc1ccc(NC(=O)CCCc2nnc3n(C(C)C)c(=O)c4sccc4n23)cc1Cl -5.68%
O=C(CSc1nccn1Cc1ccco1)Nc1ccc(OC(F)(F)F)cc1 24.2%
Cc1cc(=O)[nH]c2nnc(SCc3cccc(C(F)(F)F)c3)n12 -3.74%
